Results on 32 sequences are retold here after publication PMC12820563, “FoxP3 forms a head-to-head dimer in vivo and stabilizes its multimerization on adjacent microsatellites”.

The list shows a part of the results.

The test deals with T1, MBP-FoxP1dN (Mus musculus, UniProt P58462 326-579).
T1 sequence: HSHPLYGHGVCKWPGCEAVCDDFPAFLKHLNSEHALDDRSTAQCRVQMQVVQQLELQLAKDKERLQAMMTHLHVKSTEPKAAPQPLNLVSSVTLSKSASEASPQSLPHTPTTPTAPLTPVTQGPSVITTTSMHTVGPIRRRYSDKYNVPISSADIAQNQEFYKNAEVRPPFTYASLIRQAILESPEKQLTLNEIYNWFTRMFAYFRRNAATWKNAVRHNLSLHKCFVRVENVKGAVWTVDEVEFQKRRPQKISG
Put plainly: PD-seq (MBP pull-down with sequencing); 20 mM Tris-HCl pH 7.5, 100 mM NaCl, 1.5 mM MgCl2, 0.4 uM protein, 0.1 uM dsDNA library, 30 min, room temperature, amylose pull-down; high values mean tight binding. Particulars: protein: recombinant; tags: His6-MBP; chain copies: 2; dsDNA, one strand shown. In short, it runs like this: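 A fragment of mouse FoxP3 or FoxP1 without its N-terminus, carrying a His6-MBP tag and produced in E. coli, was combined at 0.4 µM with a 0.1 µM degenerate double-stranded DNA library filled in with Klenow. The mixture sat for 30 min at room temperature in Tris pH 7.5 buffer containing NaCl and MgCl2. Protein–DNA complexes were captured on amylose resin, washed three times, and the DNA was freed with proteinase K, barcoded by PCR and sequenced on Illumina. Binding is expressed as reads-per-million enrichment of pull-down over input, with replicates pooled.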
As to “GATGATTGTTCTCCCAGCTGATGAATTCGTTTATTCGAGTAAACAAATTTTCCTAATCTTTCTGTTCAAGCGCCATCTAC”, the binding signal was 1.25 RPM ratio (pull-down/input).
In the case of “GATGATTGTTCTCCCAGCTGATGAATTCGCTTATTCGAGTAAACAAATTTTCCTAATCTTTCTGTTCAAGCGCCATCTAC”, the binding signal was 0.94 RPM ratio (pull-down/input).
Turning to “GATGATTGTTCTCCCAGCTGATGAATTGTCACAGTCGAGTAAACAAATTTTCCTAATCTTTCTGTTCAAGCGCCATCTAC”, the binding signal is 1.08 RPM ratio (pull-down/input).
For “GATGATTGTTCTCCCAGCTGATGAATTGGTCTTTTCGAGTAAACAAATTTTCCTAATCTTTCTGTTCAAGCGCCATCTAC” the value was 1.08 RPM ratio (pull-down/input); for “GATGATTGTTCTCCCAGCTGATGAATTTATTTCATCGAGTAAACAAATTTTCCTAATCTTTCTGTTCAAGCGCCATCTAC”, 1.16 RPM ratio (pull-down/input).
For “GATGATTGTTCTCCCAGCTGATGAATTCAATTAGTCGAGTAAACAAATTTTCCTAATCTTTCTGTTCAAGCGCCATCTAC” the value was 0.9 RPM ratio (pull-down/input).
With “GATGATTGTTCTCCCAGCTGATGAATTCAATGGGTCGAGTAAACAAATTTTCCTAATCTTTCTGTTCAAGCGCCATCTAC”, the binding signal was 0.819 RPM ratio (pull-down/input).
The result for “GATGATTGTTCTCCCAGCTGATGAATTCTACTGTTCGAGTAAACAAATTTTCCTAATCTTTCTGTTCAAGCGCCATCTAC” reads 0.845 RPM ratio (pull-down/input).
For “GATGATTGTTCTCCCAGCTGATGAATTACTCTTCTCGAGTAAACAAATTTTCCTAATCTTTCTGTTCAAGCGCCATCTAC” the value was 1 RPM ratio (pull-down/input); for “GATGATTGTTCTCCCAGCTGATGAATTGCCTTTGTCGAGTAAACAAATTTTCCTAATCTTTCTGTTCAAGCGCCATCTAC”, 1.05 RPM ratio (pull-down/input); for “GATGATTGTTCTCCCAGCTGATGAATTACCGGCTTCGAGTAAACAAATTTTCCTAATCTTTCTGTTCAAGCGCCATCTAC”, 0.905 RPM ratio (pull-down/input).
The result for “GATGATTGTTCTCCCAGCTGATGAATTCCCCCTGTCGAGTAAACAAATTTTCCTAATCTTTCTGTTCAAGCGCCATCTAC” reads 0.778 RPM ratio (pull-down/input); that for “GATGATTGTTCTCCCAGCTGATGAATTGGTCCTGTCGAGTAAACAAATTTTCCTAATCTTTCTGTTCAAGCGCCATCTAC”, 0.842 RPM ratio (pull-down/input); that for “GATGATTGTTCTCCCAGCTGATGAATTCCCTGTATCGAGTAAACAAATTTTCCTAATCTTTCTGTTCAAGCGCCATCTAC”, 0.931 RPM ratio (pull-down/input).
As for “GATGATTGTTCTCCCAGCTGATGAATTTGATCTGTCGAGTAAACAAATTTTCCTAATCTTTCTGTTCAAGCGCCATCTAC”, the binding signal is 0.827 RPM ratio (pull-down/input).
For “GATGATTGTTCTCCCAGCTGATGAATTTCTACCTTCGAGTAAACAAATTTTCCTAATCTTTCTGTTCAAGCGCCATCTAC” the value was 0.845 RPM ratio (pull-down/input); for “GATGATTGTTCTCCCAGCTGATGAATTGAGCTCCTCGAGTAAACAAATTTTCCTAATCTTTCTGTTCAAGCGCCATCTAC”, 0.782 RPM ratio (pull-down/input); for “GATGATTGTTCTCCCAGCTGATGAATTGTTCAGGTCGAGTAAACAAATTTTCCTAATCTTTCTGTTCAAGCGCCATCTAC”, 0.922 RPM ratio (pull-down/input).
Regarding “GATGATTGTTCTCCCAGCTGATGAATTTTGTAGGTCGAGTAAACAAATTTTCCTAATCTTTCTGTTCAAGCGCCATCTAC”, the binding signal was 0.919 RPM ratio (pull-down/input).
Take “GATGATTGTTCTCCCAGCTGATGAATTCTCCAATTCGAGTAAACAAATTTTCCTAATCTTTCTGTTCAAGCGCCATCTAC”: the binding signal is 0.957 RPM ratio (pull-down/input).
On to “GATGATTGTTCTCCCAGCTGATGAATTTTCAATCTCGAGTAAACAAATTTTCCTAATCTTTCTGTTCAAGCGCCATCTAC”, for which the binding signal is 0.823 RPM ratio (pull-down/input).
With “GATGATTGTTCTCCCAGCTGATGAATTGCTTTAGTCGAGTAAACAAATTTTCCTAATCTTTCTGTTCAAGCGCCATCTAC”, the binding signal is 1.06 RPM ratio (pull-down/input).
Turning to “GATGATTGTTCTCCCAGCTGATGAATTGCCTTTCTCGAGTAAACAAATTTTCCTAATCTTTCTGTTCAAGCGCCATCTAC”, the binding signal was 1 RPM ratio (pull-down/input).
Consider “GATGATTGTTCTCCCAGCTGATGAATTGAGGTCCTCGAGTAAACAAATTTTCCTAATCTTTCTGTTCAAGCGCCATCTAC”, for which the binding signal is 0.772 RPM ratio (pull-down/input).
As for “GATGATTGTTCTCCCAGCTGATGAATTTTGGGCCTCGAGTAAACAAATTTTCCTAATCTTTCTGTTCAAGCGCCATCTAC”, the binding signal was 0.804 RPM ratio (pull-down/input).
Take “GATGATTGTTCTCCCAGCTGATGAATTAATAAAGTCGAGTAAACAAATTTTCCTAATCTTTCTGTTCAAGCGCCATCTAC”: the binding signal is 1.09 RPM ratio (pull-down/input).
The result for “GATGATTGTTCTCCCAGCTGATGAATTCCACCGATCGAGTAAACAAATTTTCCTAATCTTTCTGTTCAAGCGCCATCTAC” reads 0.835 RPM ratio (pull-down/input).
For “GATGATTGTTCTCCCAGCTGATGAATTTGACGGGTCGAGTAAACAAATTTTCCTAATCTTTCTGTTCAAGCGCCATCTAC” the value was 0.814 RPM ratio (pull-down/input).
The result for “GATGATTGTTCTCCCAGCTGATGAATTTTTTTCCTCGAGTAAACAAATTTTCCTAATCTTTCTGTTCAAGCGCCATCTAC” reads 0.754 RPM ratio (pull-down/input); that for “GATGATTGTTCTCCCAGCTGATGAATTATCACAATCGAGTAAACAAATTTTCCTAATCTTTCTGTTCAAGCGCCATCTAC”, 1.44 RPM ratio (pull-down/input); that for “GATGATTGTTCTCCCAGCTGATGAATTTACTACATCGAGTAAACAAATTTTCCTAATCTTTCTGTTCAAGCGCCATCTAC”, 1.44 RPM ratio (pull-down/input).
With “GATGATTGTTCTCCCAGCTGATGAATTCGACGATTCGAGTAAACAAATTTTCCTAATCTTTCTGTTCAAGCGCCATCTAC”, the binding signal was 0.836 RPM ratio (pull-down/input).
